# Laboratory results: the supplement of paper PMC8728848
# Some of the results follow.
# B1: DC-ASPGR (Homo sapiens), CLC10_HUMAN (protein)
# chain: LDQNSKFQRDLVTLRTDFSNFTSNTVAEIQALTSQGSSLEETIASLKAEVEGFKQERQAVHSEMLLRVQQLVQDLKKLTCQVATLNNNASTEGTCCPVNWVEHQDSCYWFSHSGMSWAEAEKYCQLKNAHLVVINSREEQNFVQKYLGSAYTWMGLSDPEGAWKWVDGTDYATGFQNWKPGQPDDWQGHGLGGGEDCAHFHPDGRWNDDVCQRPYHWVCEAGLGQTSQESHVEPKSCDKTHTCPPCPAPELLGGPSVFLFPPKPKDTLMISRTPEVTCVVVDVSHEDPEVKFNWYVDGVEVHNAKTKPREEQFNSTYRVVSVLTVLHQDWLNGKEYKCKVSNKGLPSSIEKTISKAKGQPREPQVYTLPPSQEEMTKNQVSLTCLVKGFYPSDIAVEWESNGQPENNYKTTPPVLDSDGSFFLYSRLTVDKSRWQEGNVFSCSVMHEALHNHYTQK
# Experiments:
# Assay in all cases: glycan array binding signal (z-score within array); higher = stronger binding
# Conditions in all cases: glycan notation: IUPAC condensed, linker removed
# GalNAc(a1-3)Gal = target: GalNAc(a1-3)Gal
# In short: (§1)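 From the Consortium for Functional Glycomics database, 3228 arrays were curated, keeping only those whose protein sequence was available. Binding is given as a within-array Z-score averaged across arrays sharing a protein sequence and across linkers. Negative Z-scores can be read as non-binding.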
# GalNAc(a1-3)GalNAc = target: GalNAc(a1-3)GalNAc
# In short: as §1
# GalNAc(b1-3)Gal = target: GalNAc(b1-3)Gal
# In short: as §1
# [1] = target: GalNAc(b1-3)Gal(a1-4)Gal(b1-4)GlcNAc
# In short: as §1
# [2] = target: GalNAc(b1-3)Gal(a1-4)Gal(b1-4)GlcNAc(b1-3)Gal(b1-4)Glc
# In short: as §1
# GalNAc(b1-3)GalNAc = target: GalNAc(b1-3)GalNAc
# In short: as §1
# GalNAc(b1-4)GlcNAc = target: GalNAc(b1-4)GlcNAc
# In short: as §1
# [3] = target: GalNAc(b1-4)GlcNAc(b1-2)Man(a1-3)[GalNAc(b1-4)GlcNAc(b1-2)Man(a1-6)]Man(b1-4)GlcNAc(b1-4)GlcNAc
# In short: as §1
# Glc(a1-4)Glc = target: Glc(a1-4)Glc
# In short: as §1
# Glc(a1-6)Glc(a1-6)Glc = target: Glc(a1-6)Glc(a1-6)Glc
# In short: as §1
# Glc(b1-4)Glc = target: Glc(b1-4)Glc
# In short: as §1
# Glc(b1-6)Glc = target: Glc(b1-6)Glc
# In short: as §1
# GlcA(b1-3)Gal = target: GlcA(b1-3)Gal
# In short: as §1
# GlcA(b1-3)GlcNAc = target: GlcA(b1-3)GlcNAc
# In short: as §1
# GlcA(b1-6)Gal = target: GlcA(b1-6)Gal
# In short: as §1
# [4] = target: GlcNAc(a1-3)Gal(b1-4)GlcNAc
# In short: as §1
# [5] = target: GlcNAc(a1-4)Gal(b1-3)GlcNAc
# In short: as §1
# [6] = target: GlcNAc(a1-4)Gal(b1-4)GalNAc
# In short: as §1
# [7] = target: GlcNAc(a1-4)Gal(b1-4)GlcNAc
# In short: as §1
# [8] = target: GlcNAc(a1-4)Gal(b1-4)GlcNAc(b1-3)Gal(b1-4)Glc
# In short: as §1
# [9] = target: GlcNAc(a1-4)Gal(b1-4)GlcNAc(b1-3)Gal(b1-4)GlcNAc
# In short: as §1
# [10] = target: GlcNAc(a1-4)Gal(b1-4)GlcNAc(b1-3)Gal(b1-4)GlcNAc(b1-3)Gal(b1-4)GlcNAc
# In short: as §1
# [11] = target: GlcNAc(a1-4)Gal(b1-4)GlcNAc(b1-3)Gal(b1-4)[Fuc(a1-3)]GlcNAc(b1-3)Gal(b1-4)[Fuc(a1-3)]GlcNAc
# In short: as §1
# [12] = target: GlcNAc(a1-6)Gal(b1-4)GlcNAc
# In short: as §1
# [13] = target: GlcNAc(b1-2)Gal(b1-3)GalNAc
# In short: as §1
# [14] = target: GlcNAc(b1-2)Man(a1-3)[GlcNAc(b1-2)Man(a1-6)]Man(b1-4)GlcNAc(b1-4)GlcNAc
# In short: as §1
# [15] = target: GlcNAc(b1-2)Man(a1-3)[GlcNAc(b1-2)Man(a1-6)]Man(b1-4)GlcNAc(b1-4)[Fuc(a1-6)]GlcNAc
# In short: as §1
# GlcNAc(b1-3)Gal = target: GlcNAc(b1-3)Gal
# In short: as §1
# [16] = target: GlcNAc(b1-3)Gal(b1-3)GalNAc
# In short: as §1
# GlcNAc(b1-3)Gal(b1-4)Glc = target: GlcNAc(b1-3)Gal(b1-4)Glc
# In short: as §1
# [17] = target: GlcNAc(b1-3)Gal(b1-4)GlcNAc
# In short: as §1
# [18] = target: GlcNAc(b1-3)Gal(b1-4)GlcNAc(b1-3)Gal(b1-4)GlcNAc
# In short: as §1
# GlcNAc(b1-3)GalNAc = target: GlcNAc(b1-3)GalNAc
# In short: as §1
# GlcNAc(b1-3)Man = target: GlcNAc(b1-3)Man
# In short: as §1
# [19] = target: GlcNAc(b1-3)[GlcNAc(b1-4)][GlcNAc(b1-6)]GlcNAc
# In short: as §1
# [20] = target: GlcNAc(b1-3)[GlcNAc(b1-6)]Gal(b1-4)GlcNAc
# In short: as §1
# [21] = target: GlcNAc(b1-3)[GlcNAc(b1-6)]GalNAc
# In short: as §1
# [22] = target: GlcNAc(b1-4)Gal(b1-4)GlcNAc
# In short: as §1
binder,measurement,setting,value
B1,glycan array binding signal (z-score),GalNAc(a1-3)Gal,1.74
same,glycan array binding signal (z-score),GalNAc(a1-3)GalNAc,0.117
same,glycan array binding signal (z-score),GalNAc(b1-3)Gal,1.31
same,glycan array binding signal (z-score),[1],1.9
same,glycan array binding signal (z-score),[2],0.569
same,glycan array binding signal (z-score),GalNAc(b1-3)GalNAc,-0.287
same,glycan array binding signal (z-score),GalNAc(b1-4)GlcNAc,2.66
same,glycan array binding signal (z-score),[3],-0.086
same,glycan array binding signal (z-score),Glc(a1-4)Glc,5.49
same,glycan array binding signal (z-score),Glc(a1-6)Glc(a1-6)Glc,-0.31
same,glycan array binding signal (z-score),Glc(b1-4)Glc,-0.27
same,glycan array binding signal (z-score),Glc(b1-6)Glc,-0.204
same,glycan array binding signal (z-score),GlcA(b1-3)Gal,-0.276
same,glycan array binding signal (z-score),GlcA(b1-3)GlcNAc,-0.208
same,glycan array binding signal (z-score),GlcA(b1-6)Gal,-0.283
same,glycan array binding signal (z-score),[4],-0.245
same,glycan array binding signal (z-score),[5],-0.216
same,glycan array binding signal (z-score),[6],-0.221
same,glycan array binding signal (z-score),[7],-0.189
same,glycan array binding signal (z-score),[8],-0.215
same,glycan array binding signal (z-score),[9],-0.092
same,glycan array binding signal (z-score),[10],-0.123
same,glycan array binding signal (z-score),[11],0.217
same,glycan array binding signal (z-score),[12],-0.268
same,glycan array binding signal (z-score),[13],-0.246
same,glycan array binding signal (z-score),[14],-0.217
same,glycan array binding signal (z-score),[15],-0.328
same,glycan array binding signal (z-score),GlcNAc(b1-3)Gal,-0.264
same,glycan array binding signal (z-score),[16],-0.018
same,glycan array binding signal (z-score),GlcNAc(b1-3)Gal(b1-4)Glc,-0.257
same,glycan array binding signal (z-score),[17],-0.211
same,glycan array binding signal (z-score),[18],-0.206
same,glycan array binding signal (z-score),GlcNAc(b1-3)GalNAc,-0.27
same,glycan array binding signal (z-score),GlcNAc(b1-3)Man,-0.273
same,glycan array binding signal (z-score),[19],-0.271
same,glycan array binding signal (z-score),[20],-0.173
same,glycan array binding signal (z-score),[21],-0.295
same,glycan array binding signal (z-score),[22],-0.246
